# Measured values published in the supplement of paper PMC11417369.
# ± gives the standard deviation of the averaged measurements. This is one part of the list.
# Test system: PfAP2-EXP AP2 domain (GST-tagged)
# Assay: gcPBM binding intensity (ln(normalized median fluorescence intensity)); higher = stronger DNA binding
# How it was run: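 Binding intensity is defined as the maximum Masliner-normalised natural-log median intensity across replicate spots for either probe orientation. It was measured on an Agilent 4 × 180k array of primer-extended double-stranded 36-bp intergenic genomic probes and negative controls, to which GST-tagged P. falciparum DNA-binding domains made in E. coli were applied for 1 h in 1× PBS with 1% milk, 0.2 mg/ml BSA, 0.5% salmon testes DNA and 0.03% Triton X-100. Detection was by Alexa488 anti-GST antibody and scanning at 488 nm.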
row,Sequence,gcPBM binding intensity (ln)
1,TTTAATTTTTTTTATAGTACATAAAAAATAAAAAAA [XGTACX_site5631],8.27 ± 0.33
2,TTTATTTGTGCATATACACACTTAAATATGTTTATT [CACACA_site7772],8.65 ± 0.2
3,TACAACCTTATAATTAGTACTTAGTTATGCTGTAAA [XGTACX_site6052],8.39 ± 0.44
4,CCGATATAATGGAAAACACACAAAAGATATTTATAT [CACACA_site7293],8.49 ± 0.67
5,TTTGTTATGGTTTTCTCACACATATATATATATATA [CACACA_site4617],10.4 ± 0.36
6,ACATAAAATTGGAGCAAACACACAAGGTTGAAATTA [CACACA_site505],8.71 ± 0.3
7,ATTATAATACTTTGTATGCACTAATCAATTATTAAA,8.36 ± 0.23
8,CCTCATAAGTTCTTATGTACGTATTGTTCACCTTTA [XGTACX_site6640],8.77 ± 0.41
9,CTGTAAAAAATATAAACACACATAGAAATATATAAA [CACACA_site340],8.79 ± 0.38
10,GAATTATAAATTATAGTGCATAAAATTATGGCATAA [GTGCAC_site9938],8.56 ± 0.085
11,TCAAAACATTATTCCATACACACCATACTTTTTAAT [CACACA_site2770],8.88 ± 0.5
12,TTGAATTATAAGAATAAACACACAAGCTTAAAAAAA [CACACA_site8318],8.46 ± 0.47
13,TATTTAAATTTGTATAATGGACGAATTATATAGAAA [GTGCAC_negctrl_site650],8.53 ± 0.41
14,CCCACAGACGGACACACACACATATATATATATATA [CACACA_site4351],10.1 ± 0.36
15,TTATTGCATTGTTTTTATAAAAAAAAAAAAAAAATT [XGTACX_negctrl_site104],8.1 ± 0.44
16,TATTTATTGTGATACTTATATTACTTAATGATTAAA [CACACA_negctrl_site676],8.31 ± 0.34
17,TAATTATGCAGACACACACACACACCCAACTAAAAA [CACACA_site2569],8.76 ± 0.57
18,CTATTTCATGGACACACACACACAAACAAACATATA [CACACA_site4696],8.85 ± 0.49
19,ATATATTATATAAAGTGTACAAAAAAAATATATAAA [XGTACX_site8065],8.91 ± 0.41
20,ATTAATAAGAAATATACACACATGGATAAATACATA [CACACA_site1872],8.64 ± 0.46
21,TTTCTTGCTACATGAAGTACACTTTCTATGACTCGT [XGTACX_site5583],8.67 ± 0.33
22,TATGATATAATTATGTGTACACAATTTTTTTTTTTT [XGTACX_site1084],8.62 ± 0.092
23,ATATATATTTTATTCACACATAAGATTATAAAACAT [CACACA_site5369],8.38 ± 0.38

row,Sequence,gcPBM binding intensity (ln)
1,TGTGTTCAGTATTGCACACACACAACAAAATAAAAA [CACACA_site8017],8.62 ± 0.23
2,AATTTTAAGAGCTATACATGCACTTCATAAAAAGTG [TGCATGCA_site180],8.62 ± 0.27
3,ATAATAAAAAAAAATGCACACATATATATATATATA [CACACA_site8766],10.3 ± 0.34
4,TAACAATTAATAAAAGGTACACTTGAATATGCACCA [XGTACX_site2717],8.73 ± 0.3
5,AATATATATATATATACACACACACCGATATATATA [CACACA_site8158],8.79 ± 0.33
6,TTAATATTTAGACATGCATGCTAATTACTATATATA [TGCATGCA_site27],9.3 ± 0.41
7,AAAAGATTTATACATACACACATATTATATTCACAT [CACACA_site3713],8.58 ± 0.47
8,ATAGAACTATATTGCACACATAATATATATATATAT [CACACA_site3189],10.04 ± 0.078
9,GTAAAAAATATGACAAGTACAAGAAAAGAAAAAAGT [XGTACX_site7906],9.23 ± 0.6
10,TTATAAATATAAAAATGTACAGAAAAAAAAAATAAA [XGTACX_site863],8.78 ± 0.43
11,ATATATATAATATGCGGTACACATTAATTAAATCAT [XGTACX_site5702],8.79 ± 0.39
12,TTATTTCTCTTTTCAGTGCATTTTATAACAAAAAAA [GTGCAC_site9930],8.69 ± 0.28
13,TTATTTTATAATAAAAGTACACAAAAAAAAAAAAAA [XGTACX_site7668],8.37 ± 0.55
14,TTTTCTTGGTTCAGTGTGCACTTATATATATATATA,10.2 ± 0.13
15,TAATATAAAGAAAAGGAACACACAAATATATATATA [CACACA_site8049],9.7 ± 0.15
16,TTATAATATATATACAGTACATATATAAAATAATAT [XGTACX_site5917],8.43 ± 0.42
17,ATGGACATCTATTGTTGTACACATTTTCCCATAACA [XGTACX_site5429],8.56 ± 0.26
18,GTAGAGCATAATAAAACACACACATACATACATATA [CACACA_site8217],8.7 ± 0.55
19,GAATATAAAATATATATATATATATATATATATATA [GTGCAC_negctrl_site425],9.96 ± 0.43
20,TTTCAAAAATGAGTTACACACACACGGATATAAATA [CACACA_site7116],8.88 ± 0.56
21,AATATTTTATTTTGGGTGCAAAAGAATATTATTTCA,8.34 ± 0.071
22,AATATAAATATTAAAACACACATAAAAAGATTATTA [CACACA_site1764],8.4 ± 0.34
23,GTGTGAAACATAAACACACACAAAAAGAAAAAATAG [CACACA_site1227],8.77 ± 0.48

row,Sequence,gcPBM binding intensity (ln)
1,TGATATTTACAAATATTAAGATCTTATATTTTTTTT [CACACA_negctrl_site617],8.21 ± 0.36
2,TATATATATATATTACGTACATAGAACTTTATAAAA [XGTACX_site4485],9.85 ± 0.15
3,AATATTATAAATGATACACACTTAAAATACACGCAC [CACACA_site7305],8.84 ± 0.29
4,ATATTTATACATAAATGTACTTTTATATATTTAATA [XGTACX_site3020],8.29 ± 0.29
5,GTATATATATATATATGTACTAATTAGTAGTTTACG [XGTACX_site6274],8.85 ± 0.38
6,TATTACATAATACAAAGTACATATATTTTTTTATTT [XGTACX_site7061],8.16 ± 0.36
7,AGCACATATATATTATGTACATATAACTTCCCAGTG [XGTACX_site7095],8.64 ± 0.41
8,CGATACTTTAGGTGTACACAAATATACATGAATGAG [CACACA_site5189],8.9 ± 0.29
9,AAAAAAAAGGAAATAACACACATGTATTTATTTATA [CACACA_site4966],8.32 ± 0.29
10,TATAATCATATTAAGGGTACATATGTGTAAATATTT [XGTACX_site6018],8.75 ± 0.38
11,TTATTATAAATGTTTTGTACGTACATCCGAAAATAA [XGTACX_site2175],8.72 ± 0.29
12,ATAATAATAATATAACCAAGGAAATATAATATTTGT [XGTACX_negctrl_site485],8.46 ± 0.47
13,CTTTAAAACCGGTACTGTACACATAGTATTATTATC [XGTACX_site2602],8.79 ± 0.39
14,GAACCATAAGGAACGACACACAAAGATAAATAAATA [CACACA_site3472],8.57 ± 0.47
15,AAAAAAAAATTATTCACACATATATATATATATATA [CACACA_site5579],10.2 ± 0.33
16,AAAAATAAAAAAAGCACACACATATATATATATATA [CACACA_site1885],10.2 ± 0.28
17,ATAATATTTTAATGCACACACACAAAAAAAAAAAAA [CACACA_site2891],8.62 ± 0.43
18,AAATTTGCTTTTATTTTACACACTTGCTCCTGTTGT [CACACA_site8276],8.97 ± 0.49
19,AAACAATCTAAAAGTAGTACAATAAAAATATATATA [XGTACX_site5607],8.79 ± 0.23
20,CATCTTATATAATCATGTACATATAGAGACTTCTTT [XGTACX_site7685],8.51 ± 0.35
21,GGGGGAATTTACATGGGTACACATGTATTAAAAAAT [XGTACX_site4130],9.85 ± 0.35
22,TTTTTCTTACATGAGTGTACACACTTTTTTTCAGAA [XGTACX_site138],8.93 ± 0.42
23,TTATATGTATGGAGGTTTTTGTATATAGATATATAG [CACACA_negctrl_site177],8.36 ± 0.41

row,Sequence,gcPBM binding intensity (ln)
1,AATATAAACAAACACACACACATATATATATATATT [CACACA_site5592],8.7 ± 0.4
2,AAAAAAAAAAAAAATAGTACAATACCCAAATATAAC [XGTACX_site6684],8.86 ± 0.44
3,ATAAAAAAAGGACACACACACATATATTTATTTATA [CACACA_site7438],8.66 ± 0.52
4,ATGTCATATAATAGTACACACATGAAAATATAAATA [CACACA_site3215],8.76 ± 0.42
5,GGTAGGGATTATACCACACACACATACACATAAATA [CACACA_site3179],8.71 ± 0.64
6,ACTATTAAAATGAATACACACAAATATAAAAATATA [CACACA_site4145],8.53 ± 0.41
7,ACGCTACATAAATACGTGCACATCTTTTTGTGTATA [GTGCAC_site9675],8.84 ± 0.11
8,ATTTATTAATATCCCAGTACTCATGGGGAATAATGA [XGTACX_site4014],8.38 ± 0.34
9,TTGTGTAAAGGTATTATTGTATTATTCAAAATAAAA [XGTACX_negctrl_site167],8.27 ± 0.38
10,AATATATAATATATATGTACTTATATATAAAAGATA [XGTACX_site7635],8.49 ± 0.28
11,TGGAGGAACCTCATATGTACGTATAAATATATATTT [XGTACX_site5603],8.8 ± 0.42
12,CATATATATTTGTTCACACACACACTAATAAAAAAA [CACACA_site8787],8.62 ± 0.43
13,TTAAAGCACCCATGCACACACACAAAGGAAAAGAAA [CACACA_site233],8.86 ± 0.47
14,TGATAAATTAAAAATTGTACTATTATAATAATATAT [XGTACX_site6615],8.24 ± 0.37
15,TTTATATAAATTTATTCACACAACTAATTTTTTAAA [CACACA_site4848],8.32 ± 0.41
16,ATCAAATAGAGACACACACACCTAAACATAAAAGAA [CACACA_site7321],8.91 ± 0.39
17,ACAATAAACATATATACACACACAAAAAAAAAAACA [CACACA_site8033],8.65 ± 0.4
18,AAAAAATTATACCTTTGTACATAAATAAAATATTAT [XGTACX_site418],8.22 ± 0.31
19,TATGTATATATTTACGCATGCTACTCTATTTTGAGA [TGCATGCA_site990],9.37 ± 0.2
20,ACCCATTGCTCACGTGCACACATAGAAAAATAATTC [CACACA_site4389],9.205 ± 0.078
